Test results published in the supplement of paper PMC8728848.
The list shows a part of the results.

How the values were obtained:
Assay in all cases: glycan array binding signal (z-score within array); higher = stronger binding
Settings in all cases: glycan notation: IUPAC condensed, linker removed
Neu5Ac(a2-8)Neu5Ac = molecular target: Neu5Ac(a2-8)Neu5Ac
Method in brief: (§1)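 Glycan array binding is given as a within-array Z-score, which can be read as non-binding when negative. The arrays, 3228 of them, came from the Consortium for Functional Glycomics database and were retained only where the protein sequence was available. Z-scores were averaged across arrays of the same protein sequence at different concentrations or buffers and across linkers.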

[1] = molecular target: Neu5Ac(a2-8)Neu5Ac(a2-3)Gal(b1-3)GalNAc(b1-4)[Neu5Ac(a2-3)]Gal(b1-4)Glc
Method in brief: as §1

[2] = molecular target: Neu5Ac(a2-8)Neu5Ac(a2-3)Gal(b1-3)GalNAc(b1-4)[Neu5Ac(a2-8)Neu5Ac(a2-3)]Gal(b1-4)Glc
Method in brief: as §1

[3] = molecular target: Neu5Ac(a2-8)Neu5Ac(a2-3)Gal(b1-4)Glc
Method in brief: as §1

[4] = molecular target: Neu5Ac(a2-8)Neu5Ac(a2-3)Gal(b1-4)GlcNAc
Method in brief: as §1

[5] = molecular target: Neu5Ac(a2-8)Neu5Ac(a2-3)[Gal(b1-3)GalNAc(b1-4)]Gal(b1-4)Glc
Method in brief: as §1

[6] = molecular target: Neu5Ac(a2-8)Neu5Ac(a2-3)[GalNAc(b1-4)]Gal(b1-4)Glc
Method in brief: as §1

[7] = molecular target: Neu5Ac(a2-8)Neu5Ac(a2-8)Neu5Ac
Method in brief: as §1

[8] = molecular target: Neu5Ac(a2-8)Neu5Ac(a2-8)Neu5Ac(a2-3)Gal(b1-4)Glc
Method in brief: as §1

[9] = molecular target: Neu5Ac(a2-8)Neu5Ac(a2-8)Neu5Ac(a2-3)[Gal(b1-3)GalNAc(b1-4)]Gal(b1-4)Glc
Method in brief: as §1

[10] = molecular target: Neu5Ac(a2-8)Neu5Ac(a2-8)Neu5Ac(a2-3)[GalNAc(b1-4)]Gal(b1-4)Glc
Method in brief: as §1

[11] = molecular target: Neu5Ac(a2-8)Neu5Ac(a2-8)Neu5Ac(a2-8)Neu5Ac(a2-3)[GalNAc(b1-4)]Gal(b1-4)Glc
Method in brief: as §1

[12] = molecular target: Neu5Ac(a2-8)Neu5Gc(a2-3)Gal(b1-4)GlcNAc
Method in brief: as §1

[13] = molecular target: Neu5Ac(b2-6)Gal(b1-4)GlcNAc
Method in brief: as §1

Neu5Ac(b2-6)GalNAc = molecular target: Neu5Ac(b2-6)GalNAc
Method in brief: as §1

[14] = molecular target: Neu5Ac9Ac(a2-3)Gal(b1-3)GlcNAc
Method in brief: as §1

[15] = molecular target: Neu5Ac9Ac(a2-3)Gal(b1-4)GlcNAc
Method in brief: as §1

[16] = molecular target: Neu5Ac9Ac(a2-6)Gal(b1-4)GlcNAc
Method in brief: as §1

[17] = molecular target: Neu5Gc(a2-3)Gal(b1-3)GlcNAc
Method in brief: as §1

[18] = molecular target: Neu5Gc(a2-3)Gal(b1-3)[Fuc(a1-4)]GlcNAc
Method in brief: as §1

Neu5Gc(a2-3)Gal(b1-4)Glc = molecular target: Neu5Gc(a2-3)Gal(b1-4)Glc
Method in brief: as §1

[19] = molecular target: Neu5Gc(a2-3)Gal(b1-4)GlcNAc
Method in brief: as §1

[20] = molecular target: Neu5Gc(a2-3)Gal(b1-4)GlcNAc(b1-3)Gal(b1-4)GlcNAc(b1-2)Man(a1-3)[Neu5Gc(a2-3)Gal(b1-4)GlcNAc(b1-3)Gal(b1-4)GlcNAc(b1-2)Man(a1-6)]Man(b1-4)GlcNAc(b1-4)GlcNAc
Method in brief: as §1

[21] = molecular target: Neu5Gc(a2-3)Gal(b1-4)[Fuc(a1-3)]GlcNAc
Method in brief: as §1

[22] = molecular target: Neu5Gc(a2-6)Gal(b1-4)GlcNAc
Method in brief: as §1

Neu5Gc(a2-6)GalNAc = molecular target: Neu5Gc(a2-6)GalNAc
Method in brief: as §1

[23] = molecular target: Neu5Gc(a2-8)Neu5Ac(a2-3)Gal(b1-4)GlcNAc
Method in brief: as §1

[24] = molecular target: Neu5Gc(a2-8)Neu5Gc(a2-3)Gal(b1-4)GlcNAc
Method in brief: as §1

[25] = molecular target: Neu5Gc(a2-8)Neu5Gc(a2-3)Gal(b1-4)GlcNAc(b1-3)Gal(b1-4)GlcNAc
Method in brief: as §1

[26] = molecular target: Neu5Gc(a2-8)Neu5Gc(a2-6)Gal(b1-4)GlcNAc
Method in brief: as §1

[27] = molecular target: Neu5Gc(b2-6)Gal(b1-4)GlcNAc
Method in brief: as §1

B1: PX9961U-pdi-543-24-543 (Parabacteroides distasonis) (protein)
chain: EEPVGEFLPGQVESEENIEGIVTGAYAVLDGYYASDAINSGCSNWQFGDVVSDDAYKGGGGTGDQNQIHLMEIFNANPTGIDFEARWAALYEGIKRCNQAIRLLNGSEVKNKEQRLAEMRFLRGHYYFNLKIIYNQIPWIDETLVDPNEYNKKSNIEFSSDQLWEKILEEFSAAYKVLPESQADYGRPTKMAARAYMAKVYLYQSKWKECLEACDEVIQSGKYELFPDFRNVFLPENDNCSEIIFAIQLSINDGSPNNENGSYGDRLLPPGGPYPVYGFLRPTQNLVNAYKTDVKGLPYNDGKDVSENDYVDVRLDHTLARPNIPFMDVQLYDWTPREASVYGPYSPKKRLVSLNSTYYSPIWPYVNALNFYVIRYADLLLWRAEAAIETGDLETGRKYINMIRERAKNTQHVKTMDQSQDAANYKVGVYDEPFKSKNEAVQALRMERRLEMAHEGIRFFDLVRWGVADEVINAYIAKEKVFRSHLQNAHFVKGKHEYFPIPQSMIDICGTEVMKQNPGY
**Q.** B1 was tested. Which “glycan array binding signal (z-score)” value (Neu5Ac(a2-8)Neu5Ac) did it give?
**A.** Its value is -0.402.

**Q.** And the “glycan array binding signal (z-score)” value [1]?
**A.** The value was -0.381.

**Q.** And the “glycan array binding signal (z-score)” value [2]?
**A.** The value was -0.469.

**Q.** And the “glycan array binding signal (z-score)” value [3]?
**A.** The value was -0.303.

**Q.** What about the “glycan array binding signal (z-score)” value [4] of the same binder?
**A.** Its value is -0.326.

**Q.** What about the “glycan array binding signal (z-score)” value [5] of the same binder?
**A.** The value was -0.08.

**Q.** And the “glycan array binding signal (z-score)” value [6]?
**A.** Its value is 2.25.

**Q.** And the “glycan array binding signal (z-score)” value [7]?
**A.** Its value is -0.447.

**Q.** What about the “glycan array binding signal (z-score)” value [8] of the same binder?
**A.** Its value is -0.429.

**Q.** What about the “glycan array binding signal (z-score)” value [9] of the same binder?
**A.** The value was -0.416.

**Q.** What about the “glycan array binding signal (z-score)” value [10] of the same binder?
**A.** The value was -0.105.

**Q.** And the “glycan array binding signal (z-score)” value [11]?
**A.** The value was 1.02.

**Q.** What about the “glycan array binding signal (z-score)” value [12] of the same binder?
**A.** Its value is 1.67.

**Q.** And the “glycan array binding signal (z-score)” value [13]?
**A.** The value was 0.445.

**Q.** And the “glycan array binding signal (z-score)” value (Neu5Ac(b2-6)GalNAc)?
**A.** Its value is -0.348.

**Q.** What about the “glycan array binding signal (z-score)” value [14] of the same binder?
**A.** Its value is -0.34.

**Q.** What about the “glycan array binding signal (z-score)” value [15] of the same binder?
**A.** The value was -0.394.

**Q.** And the “glycan array binding signal (z-score)” value [16]?
**A.** Its value is -0.421.

**Q.** And the “glycan array binding signal (z-score)” value [17]?
**A.** The value was -0.43.

**Q.** What about the “glycan array binding signal (z-score)” value [18] of the same binder?
**A.** Its value is -0.445.

**Q.** What about the “glycan array binding signal (z-score)” value (Neu5Gc(a2-3)Gal(b1-4)Glc) of the same binder?
**A.** Its value is -0.384.

**Q.** And the “glycan array binding signal (z-score)” value [19]?
**A.** Its value is -0.327.

**Q.** And the “glycan array binding signal (z-score)” value [20]?
**A.** The value was -0.39.

**Q.** And the “glycan array binding signal (z-score)” value [21]?
**A.** The value was -0.202.

**Q.** What about the “glycan array binding signal (z-score)” value [22] of the same binder?
**A.** Its value is -0.225.

**Q.** What about the “glycan array binding signal (z-score)” value (Neu5Gc(a2-6)GalNAc) of the same binder?
**A.** The value was -0.498.

**Q.** What about the “glycan array binding signal (z-score)” value [23] of the same binder?
**A.** Its value is -0.415.

**Q.** And the “glycan array binding signal (z-score)” value [24]?
**A.** Its value is -0.359.

**Q.** And the “glycan array binding signal (z-score)” value [25]?
**A.** The value was -0.398.

**Q.** And the “glycan array binding signal (z-score)” value [26]?
**A.** The value was -0.347.

**Q.** And the “glycan array binding signal (z-score)” value [27]?
**A.** The value was 1.12.
